This is one part of the list. These are further read-outs of the screen, such as a control signal, another cell line or another target. No call is given for them.
Tests used:
Test in all cases: Primary Screen for Target Class Profiling of Small Molecule Inhibitors of Methyltransferases
[1] = molecular target: Glycine N-methyltransferase (Homo sapiens) (UniProt Q14749); conditions: purified enzyme, MTase-Glo SAH luminescence; measured here: GNMT inhibition; at 40 µM; stronger effect = lower value
Procedure, shortened: (§1)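 Each enzyme was assayed with SAM and its substrate. SAH formation detected by MTase-Glo luminescence; single-point 40 uM screen[…].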

[2] = molecular target: Guanidinoacetate N-methyltransferase (Homo sapiens) (UniProt Q14353); conditions: purified enzyme, MTase-Glo SAH luminescence; measured here: GAMT inhibition; at 40 µM; stronger effect = lower value
Procedure, shortened: as §1

[3] = molecular target: Histamine N-methyltransferase (Homo sapiens) (UniProt P50135); conditions: purified enzyme, MTase-Glo SAH luminescence; measured here: HNMT inhibition; at 40 µM; stronger effect = lower value
Procedure, shortened: as §1

[4] = molecular target: Nicotinamide N-methyltransferase (Homo sapiens) (UniProt P40261); conditions: purified enzyme, MTase-Glo SAH luminescence; measured here: NNMT inhibition; at 40 µM; stronger effect = lower value
Procedure, shortened: as §1

[5] = molecular target: Phenylethanolamine N-methyltransferase (Homo sapiens) (UniProt P11086); conditions: purified enzyme, MTase-Glo SAH luminescence; measured here: PNMT inhibition; at 40 µM; stronger effect = lower value
Procedure, shortened: as §1
On the % scale 0 is the no-effect control and ±100 the full control effect.

SMILES	activity change, negative = inhibition [1] [%]	activity change, negative = inhibition [2] [%]	activity change, negative = inhibition [3] [%]	activity change, negative = inhibition [4] [%]	activity change, negative = inhibition [5] [%]
COC(=O)C1(C)CCC2(C(=O)O)CCC3(C)C(=CCC4C5(C)CC(O)C(OC6OCC(O)C(O)C6O)C(C)(CO)C5CCC43C)C2C1 (stereo not given)	1.46	-1.45	7.31	-13.1	-3.13
COc1ccccc1-c1nc2nccc(-c3cccnc3)n2n1	-12.4	-7.74	-4.92	-17.3	-9.2
CC1(C(=O)NC2CCCC2)Cn2c(cc3ccccc32)C(=O)N1Cc1ccccn1 (stereo not given)	3.64	1.66	6.35	3.61	0.101
CN1CCc2cc3c(cc2C(=O)Cc2cc4c(cc2C1)OCO4)OCO3	3.9	6.24	7.82	-7.16	6.99
CC(C)CCNC(=O)C1c2c(n(C)c3ccccc23)SCC(=O)N1c1ccc(C(C)C)cc1 (stereo not given)	4.37	0	0.34	-7.66	1.59
CC(C)Cn1c(=O)c2ccccc2n2c(CCC(=O)NCCc3c[nH]c4ccccc34)nnc12	-9.39	0	-12	-12.9	1.28
CN1C(=O)c2cc(NC(=O)c3cccc(Br)c3)ccc2N2CCN=C12	-3.81	-0.809	3.88	1.39	-1.2
CN(Cc1ccccc1C(F)(F)F)S(=O)(=O)c1cccc(C(F)(F)F)c1	-3.82	-3.84	-0.766	-11.5	-22.3
CC1CCC(NC(=O)c2ccc3c(=O)nc4c(-c5ccc(Cl)cc5)n[nH]n4c3c2)CC1 (stereo not given)	-4.52	0.516	6.03	8.71	3.81
O=C([C@@H]1C[C@H](F)CN1C(=O)NCc1ccc(OC(F)(F)F)cc1)N1CCCCC1	-1.68	0.536	-0.097	-3.97	-0.415
CC(C)Cn1c(=O)c2ccc(C(=O)NC(C)C)cc2n2c(=O)n(CC(=O)Nc3ccc(Cl)cc3)nc12	-0.329	2.61	4.63	2.69	2.99
CN(C)S(=O)(=O)c1ccc(NC(=S)N2CCC(C(O)(c3ccccc3)c3ccccc3)CC2)cc1	3.92	-9.53	12.5	-24.7	-4.71
CCc1cc2c(cc3n2CC(C)(C(=O)NC2CCC(C)CC2)N(CCCN2CCCCC2)C3=O)s1 (stereo not given)	2.48	3.32	-0.383	-1.79	-1.69
CCN(CC)C(=O)C[C@@H]1c2nc(NC(=O)N3CCOCC3)sc2C[C@@H]2[C@](C)(CO)[C@H](O)CC[C@]21C	-2.42	-1.69	0.104	-3.17	-2.09
CC1(C)C(=O)N2c3ccccc3[C@]3(CC(n4cnc5ccccc5c4=O)C(=O)O3)[C@H]2N1O (stereo not given in full)	2.68	1.73	5.2	-14.4	4.04
CCCn1c(=O)c2cc(Cl)ccc2n2c(SCc3ccccc3C)nnc12	-29.4	0	7.75	-10.1	1.67
Cc1cccc(-c2nc(Cn3c(-c4ccc(F)cc4)nc(C)c(CCO)c3=O)c(C)o2)c1	0.102	1.06	1.2	-1.65	5.18
COC1CCOC2(CCN(S(=O)(=O)c3c(C)noc3C)CC2)C1 (stereo not given)	0.175	-1.58	-0.676	-2.37	-0.91
COCC(=O)N1CCN(C(=O)CSCC(=O)O)C[C@H]1C(=O)N[C@H]1CCCNC1=O	-2.28	-2.54	-1.37	-9.62	8.45

SMILES	activity change, negative = inhibition [1] [%]	activity change, negative = inhibition [2] [%]	activity change, negative = inhibition [3] [%]	activity change, negative = inhibition [4] [%]	activity change, negative = inhibition [5] [%]
Cc1ccc(C(=O)N2CC(Oc3ccc(F)c(C)c3)C2)cc1	-8.24	1.09	-1.7	-20.6	-4.86
CCCN1C(=O)c2cc3ccccc3n2CC1(C)C(=O)NC1CCCCCC1 (stereo not given)	6.41	6.18	6.19	-0.654	-1.59
O=C(O)C[C@@H]1CCN(C(=O)c2ccc(C(F)(F)F)cc2)C[C@@H]1CCN1CCN(c2ccccn2)CC1	0.484	-0.168	0.867	1.67	-2.22
COCCN1C(=O)CCC2(C(=O)N3CCN(c4ccccn4)CC3)CCCC=C12 (stereo not given)	0.744	2.02	1.11	-2.87	-0.433
CCOc1ccc(-c2cccc3c2CCNC3)cc1C(N)=O	-5.59	-8.75	-10.8	-11.8	-12.9
CC[S+](=O)([O-])N1C[C@@H](CO)[C@@H]2Oc3c(F)cccc3[C@@H]21	-7.48	-4.81	-2.38	-10.9	-10.1
Cc1ccc(Cn2c(=O)c3ccccc3n3c(CCC(=O)NCCC(C)C)nnc23)cc1	-6.45	0.588	4.37	12.7	-1.33
CC1CCN(C(=O)C[C@@H]2c3nc(NC(=O)CC(C)(C)C)sc3C[C@@H]3[C@](C)(CO)[C@H](O)CC[C@]32C)CC1	-3.06	2.35	-1.57	-2.58	8.69
CC(=O)OC[C@]12[C@@H](OC(=O)c3ccoc3)C[C@@H]3[C@@H](OC(C)=O)[C@]1(OC3(C)C)[C@@](C)(O)C[C@H](OC(=O)c1ccoc1)[C@@H]2OC(=O)c1ccoc1	0.315	-0.484	7.22	-12.7	-5.78
CCCSCCCN1C(=O)c2nc3ccccc3n2CC1(C)C(=O)NC1CCCCC1C (stereo not given)	1.65	4.88	6.07	0.866	0.807
C[C@@H]1CCN(C(=O)N2CCCC2)C[C@@H]1N(C)c1ncnc2[nH]ccc12	-5.04	-6.5	-0.451	-24	-12.9
Cc1nc(C2(C)CCN(C(=O)CCCC(=O)n3nc(C)c4ccccc43)CC2)no1	-3.22	-1.38	1.29	-15.8	-2.44
CCOc1ccc(CCNC(=O)CCc2nnc3n(CCCOC(C)C)c(=O)c4ccccc4n23)cc1	-3.79	32.1	9.49	11.3	2.52
COCCNC(=O)c1cc(-c2ccccc2OC)c2cccn2n1	-12.7	-7	-6.26	-20.1	-8.96
COc1ccc(NC(=O)CCc2nnc3n(CCc4ccccc4)c(=O)c4ccccc4n23)cc1OC	4.63	3.38	6.61	7.05	1.26
Cn1nccc1-c1ccccc1Oc1ccc(S(=O)(=O)Nc2nccs2)cc1C#N	-4.59	3	12.1	-25	1.79
CN1CCN(CCNC(=O)CCn2ccc3cc(S(=O)(=O)N4CCCCC4)ccc32)CC1	7.07	2.8	2.99	13.4	6.14
Cc1cccc(NC(=O)Cn2nc3n(CCC(C)C)c(=O)c4ccc(C(=O)NCC(C)C)cc4n3c2=O)c1	-1.64	-1.97	1.64	-5.62	-4.43
